Test results: the supplement of paper PMC3334620
Over roughly 33,000 sequences, “E-score (-0.5 to 0.5)” has its median near -0.016; the highest 2% begin near 0.31. This is one part of the list.

The sequences below were run against Cst6 (UniProt P40535) (assay: PBM E-score (8-mer binding enrichment) (E-score (-0.5 to 0.5)); higher = stronger / more preferred TF binding; most listed sequences are background and not binding sites). Details: protein concentration: 200 nM; construct: GST-DNA-binding domain.
Summary of the method: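 Using PURExpress in vitro transcription/translation, GST-tagged yeast transcription factors were made in full-length or DNA-binding-domain form. These were applied at about 100-200 nM to double-stranded universal all-10-mer Agilent arrays, and bound protein was detected with fluorescent anti-GST. Scans were normalised with masliner before the Universal PBM Analysis Suite assigned E-scores to ungapped eight-base words pooled with their reverse complements.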

Sequence	PBM E-score
CGAATCGA	0.169
ATCCCGCG	0.128
CGTTGCTC	-0.00709
GTTGTAGA	0.00219
CGAAAAGA	0.313
ATGTAGAA	0.119
AAATCGCC	0.049
CAATCAAG	-0.0503
CACAGTTA	0.186
CATAAATC	0.148
GATTTGGA	-0.0479
GAGTAACA	0.028
ATTATGCA	0.144
AAAGCATG	-0.039
CCGGGAAA	-0.148
GGGAGGGA	-0.237
GCTCTCCC	-0.25
AAAATATT	0.233
AGTGGACC	-0.346
AATGGGGC	-0.0991
ATGTCCGA	-0.158
CGATTTAA	0.0976
CATTAAAC	0.116
CAGGGATG	-0.138
CTGTAACC	0.176

Sequence	PBM E-score
ACATACCC	0.159
GCAAAGGA	0.115
ATCAACTA	0.237
ATATTCCC	0.0685
GAATTGCC	-0.00514
AAAGCAGA	0.066
GACCAACC	-0.139
CAAGAGGA	-0.0221
CGCCAGCG	-0.218
TTGTGAAA	0.115
ACATGATC	0.206
AAGGTTTA	0.0326
ACGGAAGC	-0.00178
CACCCTGC	-0.0774
GCATTCCC	-0.161
TACCTCAA	0.0355
AAGGGTCA	-0.103
ATCTTCTA	0.0735
CGGGCGAA	-0.207
GGGCGAAC	0.0255
GTCGGTTA	-0.0355
ACCGTCGT	-0.0178
CATCTTCC	0.195
ACATTGGC	-0.0931
CACCGGAC	-0.175

Sequence	PBM E-score
CTGGGCTA	-0.283
CTATTTCA	0.227
CGCCAGGA	-0.124
AGCGACGG	0.00159
ACGAGCAG	-0.0773
AAATCATA	0.275
AAGCGAAC	0.0033
CGCGCTCA	0.0199
ATACGACC	-0.103
GACGGGAC	-0.242
GAATCCAA	-0.0631
AAGGAAAC	-0.00681
ACCCAGTG	-0.0761
ACACACTA	0.0411
AATGCATT	0.0825
ATCCAACG	-0.0807
AACCATGA	0.224
CAGGTTAC	-0.146
CGGAGAGA	-0.204
CAGGATGG	-0.213
AGGCGAAA	-0.0196
TAGCGATA	0.0862
CTCTCACC	-0.0952
ACAGCCCT	-0.167
CGACATCG	-0.122

Sequence	PBM E-score
GTTATCTA	-0.0154
GACCAGCA	-0.152
AACACCGT	-0.137
TCCTTGAA	-0.0366
AGGGTTCG	-0.332
TATTGACA	0.0874
ACGGATAT	0.292
CCAGGTCC	-0.36
CTGCGGAA	-0.171
AGCGCGAA	0.136
GATATTCA	-0.0707
AATTAGCT	0.0936
GCCCCCCC	-0.331
CCAAATAC	0.0357
ACAACACT	0.0552
ACGCCGTA	0.349
GGATGTTA	-0.0489
CTCGGAAA	-0.128
CTTGCAGA	-0.138
CTATAATA	0.0135
AGGGGTAT	-0.287
CAAGCATA	0.0503
GTCGCGGA	-0.198
AACATAGC	-0.148
GCATAGGC	-0.0795

Sequence	PBM E-score
CACATCCA	0.0192
CGATAGCG	-0.0736
CCAGCGGA	-0.342
ACTAAATA	0.198
ACGCATGC	0.12
CCCTCTTA	-0.014
AAGGCTTG	-0.0146
CAACGTAC	0.0567
CATAACCC	-0.12
CTTGCAAA	0.0673
GAATTGTA	0.0848
AGAAACAA	0.295
CAGATGCA	-0.269
AACCACGA	0.0283
GCTTCGGA	-0.15
GATTATGA	0.278
CAAGTTCA	0.108
CCGTTCGA	0.197
CGCGGCTC	0.28
CTGCAGAA	0.159
ATACAGAA	0.216
CATGGCGG	-0.023
CCGTGGCG	0.101
CCTTAAAG	-0.0897
AGCTGGTG	-0.169

Sequence	PBM E-score
CATTTAGG	-0.191
ACCACGGG	-0.163
AATTTTAC	0.326
GTGTTATA	0.16
CCAAAAAG	0.0341
GTTGGGTA	-0.165
GGAGGCTA	-0.258
CCCAAGGC	-0.0244
ATAATCGC	0.155
ACATTAAG	0.128
CCCGCCGA	-0.226
ACCGGTTA	0.0584
ACATCGCG	-0.0687
TAAGTTAA	0.187
GATTGTGC	0.0525
CCTGCCGC	-0.156
TCGGTAAA	0.0207
ACCAGCTC	-0.12
CGTCAACG	0.344
ATGCCCGG	-0.307
AAAATCCT	0.0302
CCTGGATA	-0.211
CCGCCGCG	0.2
ATCCTTTG	0.0497
ACCTTTTA	-0.0433

Sequence	PBM E-score
GATCGGCC	-0.106
GTATGCAC	0.12
CACTTTTC	0.0833
AACACTCA	0.16
AGGAGCCA	-0.278
TGGTGGAA	-0.125
ACAGGCCG	-0.126
GAGTACTC	-0.205
GCAGTGTA	0.112
AGTCTCCG	-0.0256
GCTGCCAC	-0.126
AAGGACAT	-0.0531
GAAAAATA	0.27
ACTGACGA	0.201
AGATACTC	0.0184
GAAAGCGC	-0.00012
GAACCTTC	-0.115
ACCAAAGT	-0.0487
AACCAGTG	-0.241
CGAAGCAG	-0.0586
TTCCTCAA	0.0662
ACAGCTGG	-0.134
